Experimental data reported in the RNAGym collection of RNA variant scans (doi:10.7554/elife.90254).
The source gives no read counts; variants with many changes may rest on few reads.

B1: LINE1-full (parent)
chain: UACGUAGGUGGUUUUCCCCUGAUAGUGCUAAGGGGGCCUGGAAGUUUGGACUGGGCAGAGCUCAACACAGCGUGGCAAAGUGGCUGUGGCUAGACUGCCUCUCUGGAUUCCUCGUCACUCAGCAGGGCAUCUCUGAGAGAAAUGCC

Variants of: B1
Test: self-cleavage, relative activity (ratio to wild type); higher = more cleavage; in vitro, sequencing; the parent is a self-cleaving ribozyme

Variant | self-cleavage
UACGUAGGUGGUCUUCCCCUGAUAGUGCUAAGGGGGCCUGGAAGUUUGGACUGGGCAGGGCUCAACGCAGCGUGGCAAAGUGGCUGUGGCUAGACUGCCUUUCUGGAUUCCUCGUCACUCAGCAGGGCAUCUCUGAGAGAAAUGCC [U13C A59G A67G C101U] | 0
UACGUAGGUGGUCUUCCCCUGAUAGUGCUAAGGGGGCCUGGAAGUUUGGACUGGGCGGAGCUCAACACAGCGUGGCAAAGUGGCUGUGGCUAGUCUGCCUCUCUGGAUUCCUCGUCACUCAGCAGGGCACCUCUGAGAGAAAUGCC [U13C A57G A94U U130C] | 0.53
UACGUAGGUGGUCUUCCCCUGAUAGUGCUAAGGGGGCCUGGAAGUUUGGACUGGGCAGAGCUCAACACGGCGUGGCAAAGUGGCUGUGGCUAGACUGCCUCUCUGGAUUCCUCAUCACUCAGCAGGGCAUCUCUGAGAGAAAUGCC [U13C A69G G114A] | 0.64
UACGUAGGUGGUCUUCCCCUGAUAGUGCUAAGGGGGCCUGGAAGUUUGGACUGGGCAGAGCUCAACACAGCGUGGCGAAGUGGCUGUGGCUAGACUGCCUCUCUGGAUUCCUCGUCACUCAGCAGGGCAUCUCUGAGAGGAAUGCC [U13C A77G A140G] | 0.95
UACGUAGGUGGUCUUCCCCUGAUAGUGCUAAGGGGGCCUGGAAGUUUGGACUGGGCAGAGCUCAGCACAGCGCGGCUAAGUGGCUGUGGCUAGACUGCCUCUCUGGAUUCCUCGUCACUCAGCAGGGCAUCUCUGAGAGAAAUGCC [U13C A65G U73C A77U] | 0
UACGUAGGUGGUCUUCCCCUGAUAGUGCUAAGGGGGCCUGGAAGUUUGGACUGGGCAGGGCUCAACACAGCGUGGCAAAGCGGCUGUGGCUAGACUGCCUCUCUGGAUUCCUCGUCACUCAGCAGGGCAUCUCUGAGAGAAAUGCC [U13C A59G U81C] | 0.09
UACGUAGGUGGUCUUCCCCUGAUAGUGCUAAGGGGGCCUGGAAGUUUGGGCUGGGCAGAGCCCAACACAGCGUGGCAAAGUGGCUGUGGCUAGACUGCCUCUCAGGAUUCCUCGUCACUCAGCAGGGCAUCCCUGAGAGAAAUGCC [U13C A50G U62C U104A U132C] | 0.31
UACGUAGGUGGUCUUCCCCUGAUAGUGCUAAGGGGGCCUGGAAGUUUGGACUGGGCAGAGCUCCACACAGCGUGGCAAAGUGGCUGUGGCUAGACCGCCUCUCUGGAUUCCUCGCCACUCAGCAGGGCAUCUCUGAGAGAAAUGCC [U13C A64C U96C U115C] | 0
UACGUAGGUGGUCUUCCCCUGAUAGUGCUAAGGGGGCCUGGAAGUUUGGACUGGGCAGAGCUCAACUCAGCGUGGCAAAGUGGCUGUGGCUAGACUGCUUCUCUGGAUUCCUCGUCACGCAGCAGGGCAUCUCUGAGAGAAAUGCC [U13C A67U C99U U119G] | 0.08
UACGUAGGUGGUCUUCCCCUGAUAGUGCUAAGGGGGCCUGGAAGUUUGGACUGGGCAGGGCUCAACACAGCGUGGCAAAGUGGCUGUGGCUAGACUGCCUCCCUGGAUUCCUCGUCACUCAGCGGGGCAUCUCUGAGAGAAAUGCC [U13C A59G U102C A124G] | 0
UACGUAGGUGGUCUUCCCCUGAUAGUGCUAAGGGGGCCUGGAAGUUUGGACUGGGCAGAGCUCUACACAGCGUGGCAAAGUGGCUGUGGCUAGACUGCCUCUCUGGAUUCCUCGUCACUCAUCAGGGCGUCUCUGAGAGAAAUGCC [U13C A64U G122U A129G] | 0.47
UACGUAGGUGGUCUUCCCCUGAUAGUGCUAAGGGGGCCUGGAAGUUUGGACUGGGCAGAGCUCAACGCAGCGCGGCAAAGUGGCUGUGGCUAGACUGCCUCUCUGGAUUCCUCGUCACUCAGCAGGGCAUCUCUGAGAGAAAUGCC [U13C A67G U73C] | 1.67
UACGUAGGUGGUCUUCCCCUGAUAGUGCUAAGGGGGCCUGGAAGUUUGGACUGGGCAGAGCUCAACACUGCGUGGCAAAGUGGCUGUGGCUAGACUGCCUCUCUGGAUUCCUCGUCACUCAGCAGGGCAUCUCCGAGAGGAAUGCC [U13C A69U U134C A140G] | 0.18
UACGUAGGUGGUCUUCCCCUGAUAGUGCUAAGGGGGCCUGGAAGUUUGGGCUCGGCAGAGCUCAACACAGCGUGGCAAAGUGGCUGUGGCUAGACUGCCUCUCUGGAUUCCCCGUCACUCAGCAGGGCAUCUCUGAGAGAAAUGCC [U13C A50G G53C U112C] | 0
UACGUAGGUGGUCUUCCCCUGAUAGUGCUAAGGGGGCCUGGAAGUUUGGACUGGGCAGAGCUCAACGCAGCGUGGCAAAGUGGCUGUGGCUAGACUGCCUCUCUGGAUGCCUCGUCACUCAGCAGGGCAUCUCUGAGAGAAAUGCC [U13C A67G U109G] | 0.31
UACGUAGGUGGUCUUCCCCUGAUAGUGCUAAGGGGGCCUGGAAGUUUGGACUGGGCAGAGCUCAACACUGCGUGGCAAAGUGGCUGUGGCUAGACUGCCUCUCUGGAUUCCUCGUCACUCGGCAGGGCAUCUCUGAGAGAAAUGCC [U13C A69U A121G] | 0.08
UACGUAGGUGGUCUUCCCCUGAUAGUGCUAAGGGGGCCUGGAAGUUUGGACUGGGCAGAGCUCCACACAGCGUGGCAAAGUGGCUGUGGCUAGACAGCCUCUCUGGAUUCCUCGUCACUCAGCAGGGCAUCCCUGAGAGAAAUGCC [U13C A64C U96A U132C] | 0.08
UACGUAGGUGGUCUUCCCCUGAUAGUGCUAAGGGGGCCUGGAAGUUUGGACUGGGCAGUGCUCAACACAGCGUGGCAAAGUGGCUGUGGCUAGACUGCCUCUCUGGAUUCCUCGUCGCUCAGUAGGGCAUCUCUGAGAGAAUUGCC [U13C A59U A117G C123U A142U] | 0.75
UACGUAGGUGGUCUUCCCCUGAUAGUGCUAAGGGGGCCUGGAAGUUUGGACUGGGCAGAGCUCAACGCAGCGUGGCAAAGUGGCUGUGGCUAGACUGCCUUUCUGGAUUCCUCGUCACUCAGCAGGGCAUCUCCGAGAGAAAUGCC [U13C A67G C101U U134C] | 0.52
